The other results are listed elsewhere or left out.
T1: UNK ZnF1-6 (called full-length) (human, UniProt Q9C0B0 30-357)
T1 sequence: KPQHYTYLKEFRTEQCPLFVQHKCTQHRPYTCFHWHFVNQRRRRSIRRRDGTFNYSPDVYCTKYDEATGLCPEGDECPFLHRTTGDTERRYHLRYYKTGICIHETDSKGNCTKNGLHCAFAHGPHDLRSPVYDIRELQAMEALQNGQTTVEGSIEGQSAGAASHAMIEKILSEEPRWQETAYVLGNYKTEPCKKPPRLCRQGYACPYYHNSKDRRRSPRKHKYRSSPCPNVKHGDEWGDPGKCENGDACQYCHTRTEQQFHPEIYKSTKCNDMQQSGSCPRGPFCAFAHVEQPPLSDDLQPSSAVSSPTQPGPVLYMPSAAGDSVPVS

B1: chr1:53088011:53088246:-|CDS|ENSG00000162383|control|control|control (ssRNA)
RNA: GGGAGUUCUACAGUCCGACGAUCCAAGCCAGUGAGCCUCCAGGAGAUCGUGGCAGCCCAGCAGAAUGGCUGUGUGAAGAGUGUAGCCGAGGCCUCCGAGCUCACCCUGGGCCCCACCUGCCCCCACCACGUCCCCGUUCAAGUCAACAGAGGAUUGAGCAUCA
B2: chr5:140245379:140245480:-|3pUTR|ENSG00000113068|msi1|FALSE|unique (ssRNA)
RNA: GGGAGUUCUACAGUCCGACGAUCUCUUCUCUUUUCCCUUCCUGUACCUUUGACUAACGCUCAGCUUCCGGGCCUGCAUGCAGUAGACAGAAGAGGAAGAAAGAACAGAUGUUCACAGCUGAAUCUCAGUGAACAGAAUAGCAGCAACAGAGGAUUGAGCAUCA
B3: chr11:61865769:61866452:+|3pUTR|ENSG00000134824|msi1|FALSE|unique (ssRNA)
RNA: GGGAGUUCUACAGUCCGACGAUCUGCAGCCUGGUCACUAGGCAUCACCCCCGCUUUGGUUCUUCAGAUGCUCUUGGGGUUCAUAGGGGCAGGUCCUAGUCGGGCAGGGCCCCUGACCCUCCCGGCCUGGCUUCACUCUCCCUGCAACAGAGGAUUGAGCAUCA
B4: chr3:15690066:15690176:-|CDS|ENSG00000206560|unk|total|mutant (ssRNA)
RNA: GGGAGUUCUACAGUCCGACGAUCAGUGUUGGUACAGUCUUUGUCCGAUCUUGAUGUCAGAAACCGCCGUGGAAGAACACCCCCCGAUCUUGCAGCUUUUAAGGGCCAUGUUGAAUGUGUGGAUGUACUCAUUAAUCAGGGAGCCAACAGAGGAUUGAGCAUCA
B5: chr1:56708525:56708626:+|3pUTR|ENSG00000162409|unk|total|mutant (ssRNA)
RNA: GGGAGUUCUACAGUCCGACGAUCACCUUUCUCAAAUUCUUUUUGCCUCUAUUUAUUUUUGCAUUUCACCAACAGUGAUAAAACCGUUAAAUGAAACAAAGCAAAGUAUCAACAGUCCCUUAAAUGAGAAUCCUUAUCUUUGAUCAACAGAGGAUUGAGCAUCA
B6: chr5:136977529:136977630:-|3pUTR|ENSG00000152377|msi1|total|mutant (ssRNA)
RNA: GGGAGUUCUACAGUCCGACGAUCACAAGCCAUCUCUUUCAUUUCUGCUUGAAGCCCCUUGGCUGCAGCAAUCCUGUCUGCCACCGGUUUCUUCCUUCCUUACCUACUCAAGGGCUUUUUCUAAGGCAUGCACACAUAUCUCCUCAACAGAGGAUUGAGCAUCA
B7: chr14:106421710:106422018:-|CDS|ENSG00000211959|control|control|control (ssRNA)
RNA: GGGAGUUCUACAGUCCGACGAUCCUAUUAUAGUGGGAGCACCUACUACAACCCGUCCCUCAAGAGUCGAGUCACCAUAUCCGUAGACACGUCCAAGAACCAGUUCUCCCUGAAGCUGAGCUCUGUGACCGCCGCAGACACGGCCAACAGAGGAUUGAGCAUCA
B8: chr10:84150713:84150851:+|CDS|ENSG00000165678|unk|FALSE|unique (ssRNA)
RNA: GGGAGUUCUACAGUCCGACGAUCUCUUCCACCUACCACCGUGGCUGGUGCCACUCUUUACUCAGUGGCAAUGUACGGUGGAUUAGUUCUUUUCAGCAUGUUCCUUCUGUAUGAUACCCAGAAAGUAAUCAAGCGUGCAGAAGUCAACAGAGGAUUGAGCAUCA
B9: chr15:30360565:30362292:-|three_prime_utr|ENSG00000166664|control|control|control (ssRNA)
RNA: GGGAGUUCUACAGUCCGACGAUCACAACUCCAGUGUUCCCUUCUGGCUGUCAGUCGUGUUGCUUACGGUUUCUUUGUUACUUUAGGUAGUAGAAUCUCAGCACUUUGUUUCAUAUUCUCAGAUGGGCUGAUAGAUAUCCUUGGCAACAGAGGAUUGAGCAUCA
B10: chr1:109310645:109310811:-|3pUTR|ENSG00000134243|msi1|total|mutant (ssRNA)
RNA: GGGAGUUCUACAGUCCGACGAUCAGGGUAACGGGGCUGGCCUGGCAUCCGUCAUUAUUCCGUUUCCAGGCCAACCAUCCAGACCGAGAUUCCCUCUUUCCUUUGAGCAGUGCUCUCAAGAGCUCCGUGCCUGUCCACAAUGACCAACAGAGGAUUGAGCAUCA
B11: chr22:42060953:42061055:-|CDS|ENSG00000198951|unk|total|mutant (ssRNA)
RNA: GGGAGUUCUACAGUCCGACGAUCCCAGGAAAAAUCUCUCAUCGAAGUGUACAUGCGGCCUCUGUCCAACAAGGCCCGCGCCUCCGUCUUCUUCAGCUGCAGGACCGAUAUGCCUUAUCGCUACCACUCCUCCCUUGGCCAGCUCAACAGAGGAUUGAGCAUCA
B12: chr19:51078814:51078951:-|CDS|ENSG00000129437|control|control|control (ssRNA)
RNA: GGGAGUUCUACAGUCCGACGAUCUCUCUGCAAUGCGUGAACAUCAACAUCUCCCCGGAUGAGGUGUGCCAGAAGGCCUAUCCUAGAACCAUCACGCCUGGCAUGGUCUGUGCAGGAGUUCCCCAGGGCGGGAAGGACUCUUGUCAACAGAGGAUUGAGCAUCA
B13: chr4:42087128:42087229:+|3pUTR|ENSG00000014824|msi1|FALSE|unique (ssRNA)
RNA: GGGAGUUCUACAGUCCGACGAUCAUUUUGUAUAAUAUAGUUCAUACUGUGUCUGUGAGUUUCUUCAGUUACAAAUGGGCAUUUAGUAUAGUUAUAUUGACUAUAACAUGUAAGUAAAUAGCUUUCUACUGACCCUAAGUUAUCCAACAGAGGAUUGAGCAUCA
B14: chr16:3436009:3436110:-|3pUTR|ENSG00000167981|unk|total|mutant (ssRNA)
RNA: GGGAGUUCUACAGUCCGACGAUCAUUAAAAUGAAGGCUCUUGCUAAAGUUAUUUUAAUUUUGUUUACGCCGUUUCUGACUUUCCGAAGGAGGAGAAUUUAUUUAUAUUUUGCCAGUUCUGCAGACAUAUCCCGGAAAGUAAAUCAACAGAGGAUUGAGCAUCA

What follows are binders tested against T1, UNK ZnF1-6 (called full-length) (assay: nsRBNS (natural sequence RNA bind-n-seq); RBNS binding buffer (assumed for nsRBNS): 25 mM Tris pH 7.5, 150 mM KCl, 3 mM MgCl2, 0.01% Triton X-100, 500 ug/ml BSA, 20 U/ml SUPERase-In, 4 C; UNK is unkempt and MSI1 is Musashi-1; names of the RNAs are library labels; protein concentration not given here; high values mean tight binding).

Binder | binding signal
B1 | 1.11 enrichment R
B2 | 0.49 enrichment R
B3 | 0.87 enrichment R
B4 | 0.555 enrichment R
B5 | 0.479 enrichment R
B6 | 0.593 enrichment R
B7 | 0.621 enrichment R
B8 | 0.843 enrichment R
B9 | 0.472 enrichment R
B10 | 0.743 enrichment R
B11 | 0.824 enrichment R
B12 | 0.785 enrichment R
B13 | 0.868 enrichment R
B14 | 0.777 enrichment R

— paper PMC12136788
